From PMC4336329 (PLoS ONE, 2015)
The whole screen tested about 310,000 compounds, of which about 14,000 (4.5%) showed an effect of 50% or more. The effect is printed as a negative number. Some of the results follow.

target: human ether-à-go-go-related gene (hERG) potassium channel (human, UniProt Q12809); experiment: primary screen, population patch clamp on CHO cells stably expressing hERG
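Note: peak tail current of the secondary pulse compared with the same well before compound.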

Sequence of human ether-à-go-go-related gene (hERG) potassium channel (Q12809 whole entry, looked up): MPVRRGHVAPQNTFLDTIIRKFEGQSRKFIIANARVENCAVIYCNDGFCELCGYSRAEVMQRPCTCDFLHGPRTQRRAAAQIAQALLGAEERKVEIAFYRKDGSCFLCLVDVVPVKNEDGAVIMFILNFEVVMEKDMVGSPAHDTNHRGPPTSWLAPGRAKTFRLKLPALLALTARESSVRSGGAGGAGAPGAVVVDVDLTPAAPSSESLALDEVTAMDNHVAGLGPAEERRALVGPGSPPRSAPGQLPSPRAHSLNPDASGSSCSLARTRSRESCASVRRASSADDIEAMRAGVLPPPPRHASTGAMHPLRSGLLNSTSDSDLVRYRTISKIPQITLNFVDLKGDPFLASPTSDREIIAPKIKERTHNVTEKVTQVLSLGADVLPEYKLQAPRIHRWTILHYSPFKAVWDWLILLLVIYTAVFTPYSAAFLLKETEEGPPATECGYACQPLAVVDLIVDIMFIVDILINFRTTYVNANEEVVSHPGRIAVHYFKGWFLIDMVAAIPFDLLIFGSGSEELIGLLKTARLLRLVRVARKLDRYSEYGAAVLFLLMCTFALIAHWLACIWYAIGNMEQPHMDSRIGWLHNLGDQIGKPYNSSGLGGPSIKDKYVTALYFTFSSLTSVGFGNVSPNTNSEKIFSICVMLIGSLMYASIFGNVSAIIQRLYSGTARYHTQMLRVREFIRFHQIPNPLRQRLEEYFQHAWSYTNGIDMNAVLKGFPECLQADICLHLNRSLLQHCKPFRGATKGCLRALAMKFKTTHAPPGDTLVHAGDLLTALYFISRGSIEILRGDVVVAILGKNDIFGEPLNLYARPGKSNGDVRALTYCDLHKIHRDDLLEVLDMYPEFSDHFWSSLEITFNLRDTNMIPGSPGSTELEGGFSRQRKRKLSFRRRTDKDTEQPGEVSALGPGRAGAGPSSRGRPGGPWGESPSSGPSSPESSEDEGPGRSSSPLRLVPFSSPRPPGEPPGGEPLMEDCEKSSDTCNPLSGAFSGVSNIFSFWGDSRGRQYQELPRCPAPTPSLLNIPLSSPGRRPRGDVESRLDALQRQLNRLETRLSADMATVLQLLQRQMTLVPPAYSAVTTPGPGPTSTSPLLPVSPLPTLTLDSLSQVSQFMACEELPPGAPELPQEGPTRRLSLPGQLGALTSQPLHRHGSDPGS

SMILES | hERG current change (%, negative = inhibition) at 10uM
Cn1c2c(c(=O)n(C)c1=O)C(NC(=O)C(C)(C)C)(C(F)(F)F)C(=O)N2 (stereo not drawn) | 5.09%
CCOC(=O)Nc1ccc2c(c1)N(C(=O)CN(CC)CC)c1ccccc1CC2.Cl | -1.1%
CCCCN(CC)CCNC(=O)c1cn(-c2ccc(Cl)cc2)c(=O)c2ccccc12 | -77.7%
Cc1ccc(Cc2cc(C)n[nH]c2=O)cc1 | 29.9%
COc1ccc(NC(=S)Nc2ccc(OC)cc2OC)c(OC)c1 | 19.5%
O=C(CSc1oc(-c2cccs2)nc1S(=O)(=O)c1ccccc1)NC1CCCCC1 | 17.7%
Cc1ccc(S/C=C\C(=O)c2ccccc2)cc1 | -2.59%
CCOc1ncccc1C(=O)NNC(=O)c1cccc(S(=O)(=O)Nc2ccccc2OC)c1 | -7.21%
Cc1ccc(/C=C2\CCC3=C2OC(N)=C(C#N)C3c2ccc(C)cc2)cc1 (stereo not drawn) | 10.6%
Cc1cc(O)ccc1Nc1nc(-c2sc(N)nc2C)cs1 | -21.7%
COc1cc(=O)n(C)c2c(O)cccc12 | 21%
O=C(Nc1ccccc1N1CCOCC1)c1ccc(Cl)c(S(=O)(=O)N2CCCC2)c1 | -11.3%
COc1ccc(C(=O)Nc2cc3c4c(c2)C(C)C(=O)N4CCC3)c(OC)c1 (stereo not drawn) | -10.5%
CCOC(=O)Cc1csc(NC(=O)/C=C/c2ccc(OC)cc2)n1 | 19.7%
COc1cc(O)c(C(CCN2CCCCC2)c2cc(OC)c(OC)c(OC)c2)c(OC)c1 (stereo not drawn) | 4.24%
O=C(NCCOC(=O)c1ccc(Cl)cc1)c1ccc[nH+]c1.[Cl-] | -24.2%
NNC(=O)c1sc2cc(C(F)(F)F)cnc2c1-c1cccnc1 | 25.7%
CCc1ccccc1NC1=CC(=O)CC(C)(C)C1 | 3.98%
C/C(CC1CC(COCCC(C)C)OC1=O)=N\NC(N)=S (stereo not drawn) | 4.37%
CCN(CC)C(=O)COc1ccc(Br)cc1Cl | -11.8%
Cc1ccc(C2(CC(=O)Nc3nccs3)CCOC(C(C)C)C2)cc1 (stereo not drawn) | -11.5%
COc1cccc(/C=C/C(=O)OCC(=O)Nc2ccc(Cl)c(S(=O)(=O)N(C)C)c2)c1OC | 2.82%

SMILES | hERG current change (%, negative = inhibition) at 10uM
CC(C)C(O)(CC#CCN1CCCC1)c1ccccc1.Cl (stereo not drawn) | 11.3%
Cc1cc(-c2nn3c(C)nnc3s2)ccc1NC(=O)C(C)(C)C | 10.7%
O=C(NCc1ccc(OC(F)(F)F)cc1)C12CN(Cc3ccccc3)CC1C(c1cccc([N+](=O)[O-])c1)=NO2 (stereo not drawn) | 18.5%
O=C(NCCCN1CCCC1)c1ccc2c(c1)N(Cc1cccc(Cl)c1)C(=O)c1ccccc1S2=O (stereo not drawn) | -15.6%
COc1ccc(N2C(=S)NC3N2C(=S)NC3(C)c2ccccc2)cc1 (stereo not drawn) | 8.31%
COc1ccc2oc(=Nc3cccc(F)c3)c(C(N)=O)cc2c1 | 22.3%
C/C(=N/NC(=O)c1ccoc1C)c1ccc(N2CCOCC2)cc1 | -10.2%
Cc1ccccc1COc1ccc(-c2nnn(CC(=O)O)n2)cc1 | 20.2%
C/C=C/C(=O)Nc1cccc(C2=NOC3(C2)C[C@@H](C(N)=O)N(C(=O)c2cc([N+](=O)[O-])cc([N+](=O)[O-])c2)C3)c1 (stereo partly drawn) | 20%
COc1ccc(-c2nn(-c3ccccc3)cc2/C=C2/SC(=S)N(Cc3ccco3)C2=O)c(C)c1 | 8.73%
Cc1nc2c(cc1C(=O)N/N=C/c1ccc(O)c(O)c1)c(=O)n(C)c(=O)n2C | -1.43%
Cc1cccc(N(Cc2ccccc2)C(=O)c2ccc(S(C)(=O)=O)cc2)c1 | -2.9%
COc1ccc(C(CCNCc2ccccc2F)c2ccc(F)cc2)cc1 (stereo not drawn) | -75.5%
CC(Oc1cccnc1[N+](=O)[O-])C(=O)Nc1ccc(Cl)cn1 (stereo not drawn) | -16.6%
Cc1ccc2[nH]c(=O)c(C(c3nnnn3C(C)(C)C)N(Cc3ccco3)CC3CCCO3)cc2c1 (stereo not drawn) | 8.84%
COc1ccc2c(c1)c(C(C)=O)c(C)n2-c1ccccc1OC | -1.09%
CC(C)CN(C(=O)COC(=O)/C=C/c1ccccc1)C1CCS(=O)(=O)C1 (stereo not drawn) | -10.7%
COc1ccc(-c2nn(CCC#N)cc2C(=O)Nc2ccc(C(C)=O)cc2)cc1 | 6.39%
CCOC(=O)c1c(C)c(C(=O)NCc2cccnc2)c(C)n1CC | 4.72%
Fc1ccccc1OCCSc1nnnn1-c1ccccc1 | -10.1%
C[C@@H]1NC(=O)/C(=C\c2ccccc2Br)NC1=O | 10.5%
C/C(Cl)=C/Cn1c(NCCN(C)C)nc2c1c(=O)n(C)c(=O)n2C | -26.9%

SMILES | hERG current change (%, negative = inhibition) at 10uM
Nc1nc(NCCOCCO)nc(N2CCCCCC2)c1[N+](=O)[O-] | -8.23%
CN(CC(=O)Nc1c(Cl)cccc1Cl)C(=O)c1sccc1-c1ccccc1 | -8.18%
CCOC(=O)C1CCN(c2ncnc3c2c(-c2ccccc2)cn3-c2ccccc2)CC1 | 18%
CCOC(=O)C1=C(C)Nc2nc(C)nn2C1c1cc(OC)ccc1OC (stereo not drawn) | 7.1%
CN(C)CCCNC(=O)COc1ccc(Br)cc1Cl | -20.7%
COc1ccc(CCNC(=O)c2n[nH]c3ccccc23)cc1 | 38.5%
O=C(OCC#CCSc1nnc(-c2ccccc2)o1)c1cccs1 | -17.7%
O=Cc1ccc(-c2ccc(Cl)cc2Cl)[nH]1 | 5.18%
CCCc1nnc(NC(=O)CC(=O)Nc2ccccc2C(=O)O)s1 | 14.1%
O=C1C=C(c2ccc(C(=O)O)cc2)C[C@@H](c2ccc(Cl)cc2)C1 | 18.2%
Cc1nn2c(=O)cc(COC(=O)c3ccc(S(=O)(=O)N4CCCCC4)cc3)nc2s1 | -3.51%
CC(=O)Nc1ccc(OCCOc2ccc([N+](=O)[O-])cc2)cc1 | 0.991%
Cc1ccc(C(=O)NCCCN2CCOCC2)cc1Cl | 8.74%
CN(C)c1cccc(C(=O)NCC2CCCO2)c1 (stereo not drawn) | 6.93%
COc1ccc(N2CCN(C(=O)c3oc4ccccc4c3NC(=O)Cc3cccc(OC)c3)CC2)cc1 | -30.2%
COc1ccc(NC(=O)/C(C#N)=C/c2ccc(OCc3ccccc3F)cc2)cc1 | 5.01%
O=C1c2ccccc2C(=O)N1Cc1ccc2c(c1)OCO2 | 9.36%
CC(Oc1cccc(Cl)c1)C(=O)Nc1ccccc1C(=O)N1CCCCC1 (stereo not drawn) | -7.54%
CC(=O)Nc1ccc(S(=O)(=O)Nc2nnc(C(C)C)s2)cc1 | 6.53%
Cc1ccc(O)c(C(=O)c2cc(C#N)c(=O)n(CC3CCCO3)c2)c1 (stereo not drawn) | -28.7%
Cc1cc(S(N)(=O)=O)ccc1N=Cc1c(O)n(-c2ccccc2)c(=O)[nH]c1=O | 12.1%
Cc1cc(C)c(C#N)c(SCC(=O)Nc2ccccc2C)n1 | 12.7%

SMILES | hERG current change (%, negative = inhibition) at 10uM
O=C(CSc1ccc(-c2ccccc2)nn1)NCC1CCCO1 (stereo not drawn) | 9.38%
COC(=O)c1ccc(N2CCN(C)CC2)c(NC(=O)COc2cccc(C)c2)c1 | -18.9%
COc1ccccc1N(Cc1ccccc1)S(=O)(=O)c1cccc(C(=O)Nc2ccc(C(C)=O)cc2)c1 | -1.35%
Cc1nc(-c2cccnc2)sc1C(=O)Nc1cccc(C(F)(F)F)c1 | -32.8%
O=CN1CC(=O)N(c2ccccc2)c2c([nH]c3ccccc23)C1 | -23.2%
COC(=O)c1ccc(Oc2c(Cl)cccc2[N+](=O)[O-])cc1 | 3.65%
Cc1ccc(NC(=O)c2nnn(CC(=O)Nc3ccc4c(c3)OCO4)c2N)cc1C | 8.01%
CCCCN1c2ccccc2N(CCCO)c2cc(C)nnc21 | -14.2%
Cc1ccc(C(=O)Oc2ccc3ccc(=O)oc3c2)cc1 | 7.18%
Cc1ccc(S(=O)(=O)N2CCN(c3ncccn3)CC2)c(C)c1 | 7.37%
c1ccc(-c2nn3nnnc3c3ccccc23)cc1 | -71.8%
Cc1cc(N2CCOCC2)nc2ccc(NC(=O)CCC(=O)N3CCCC(C)C3)cc12 (stereo not drawn) | -20.5%
COc1ccc(N2CCN(S(=O)(=O)c3cccs3)CC2)cc1 | -5.58%
O=C1CSC2(N1)C1CC3CC(C1)CC2C3 (stereo not drawn) | 7.2%
Cc1c(O)c(=O)n(-c2ccccc2)n1C | 12.4%
CNC(=O)c1ccccc1NC(=O)c1cccc(S(=O)(=O)N2CCCCC2)c1 | -51.1%
COc1ccc(NC(=O)Cc2nnc(SCC(=O)Nc3ccc(F)cc3)n2C)cc1 | -13.7%
Cc1csc(=O)n1CC(=O)OCC(=O)Nc1ccc(F)c(F)c1 | 7.51%
COc1ccc(CC(=O)Nc2ccccc2NC(=O)Cc2ccc(OC)cc2)cc1 | 8.9%
COc1ccc(NC(=O)c2ccc(C)cc2)c[n+]1[O-] | 15.6%
Cc1cccc(C(=O)N[C@H](C(=O)OCC(=O)NC2CCS(=O)(=O)C2)C(C)C)c1 (stereo partly drawn) | 21.1%
